# Inconclusive results, whose numbers are uncertain, are shown with a selection of clear calls. For some of these results: Where the call is inconclusive, the potency comes from a doubtful curve fit. Active and inactive are the calls of the source. The call rests on the fitted dose curve; in most records, active means well fitted curve in the direction sought with a large enough effect; inconclusive means small, poorly fitted or top-dose-only effect, or another doubt; inactive means no such curve, though single readings can be large; an effect the other way counts as inactive or inconclusive.
# Experiments:
# [1] = COV-362 Cancer Cell Toxicity qHTS against the NCATS CANVASS Library (AID 1347352); further: potency means the concentration at half of the fitted maximal effect; on activity change, negative = cytotoxicity: on the % scale 0 is the no-effect control and ±100 the full control effect
# Outline: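 Toxicity was measured as CellTiter-Glo luminescence after 72 h exposure to an 11-point compound series. Compound was added to 1000 cells/well 4 h after seeding.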
# [2] = HEK293 18hr Apoptosis Induction qHTS against the NCATS CANVASS Library (AID 1347357); further: potency means the concentration at half of the fitted maximal effect
# Outline: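 Cells seeded at 500/well in DMEM + 10% FBS. Compounds pinned, 11 concentrations. 18 h, 37 degrees C/5% CO2. Caspase-Glo 3/7 added, 15 min RT dark, luminescence read.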
# [3] = KB-3-1 Cancer Cell Toxicity qHTS against the NCATS CANVASS Library (AID 1347366); further: nearly all actives have a fitted effect of over 75% in size; further: potency means the concentration at half of the fitted maximal effect; on activity change, negative = cytotoxicity: on the % scale 0 is the no-effect control and ±100 the full control effect
# Outline: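 Luminescence from CellTiter-Glo (10 min, room temperature) measured KB-3-1 viability after 72 hr compound exposure at 37C. Cells were seeded at 500/well and tested in an 11-point series.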
# [4] = qHTS for Hypoxia signaling pathway (HIF-1) agonists against the NCATS CANVASS Library (AID 1347375); further: potency means the concentration at half of the fitted maximal effect
# Outline: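 Beta-lactamase reporter under HRE control in ME-180 cells; compounds (11-point qHTS series) added after 5 hrs plating, then 17 hrs at 37C. FRET substrate read after 2 hr; same-well CellTiter-Glo luminescence gave viability and normalization.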
# [5] = qHTS for H2AX Agonists against the NCATS CANVASS Library (AID 1347378);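 further: phospho-H2AX S139 level in CHO-K1 lysates by TR-FRET emission ratio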; further: potency means the concentration at half of the fitted maximal effect
# Outline: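 CHO-K1, 1000 cells/well, o/n 37C; cpd several conc, 3 hr 37C, 0.76% DMSO; lyse 30 min RT; cryptate anti-pH2AX(S139) + d2 anti-H2AX, 24 hr RT; HTRF 665/620.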
# [6] = qHTS for Inflammasome Signaling Inhibitors: IL-1-beta AlphaLISA screen against the NCATS CANVASS Library (AID 1347379);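 further: human THP-1 cells primed with LPS then triggered with ATP; secreted IL-1B measured as AlphaLISA emission at 615 nm; potency means the concentration at half of the fitted maximal effect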
# Outline: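 Secreted IL-1B from human THP-1 cells quantified by AlphaLISA 16 hr after compound addition (final up to 57.5 uM). A 1 hr compound pretreatment preceded inflammasome activation with 250 ng/mL LPS plus 1.25 mM ATP (final).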
# [7] = qHTS for activators of dead-cell proteases activity screened against the NCATS CANVASS Library (AID 1347392);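 further: luminescence from protease leaking out of membrane-damaged cells cleaving impermeant substrate; rising signal means more cytotoxicity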; further: potency means the concentration at half of the fitted maximal effect
# Outline: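 Cytotoxicity in HepG2 cells was assessed by released protease cleaving AAF-aminoluciferin, with luminescence as signal. Exposure lasted 5 h at 37C across an 11-point series.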
# [8] = qHTS for ATAD5 Antagonist screened against the NCATS CANVASS Library (AID 1347370); further: nearly all actives have a fitted effect of over 65% in size; further: potency means the concentration at half of the fitted maximal effect
# Outline: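 Compounds (11-point) co-dosed with 10 µM 5-FUrd for 16 h at 37 °C onto HEK293T-ATAD5 luciferase reporter cells. Viability measured by CellTiter-Fluor fluorescence, then ATAD5 reporter signal by luminescence.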
# [9] = DH5-alpha competent E. coli microbial cell viability qHTS against the NCATS CANVASS Library (AID 1347377); details: viability signal change, negative = cytotoxic: at 46.1 µM (top of the series); further: potency means the concentration at half of the fitted maximal effect; on viability signal change, negative = cytotoxic: 0% is about no effect
# Outline: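 Bacterial viability as ATP-dependent luminescence (BacTiter-Glo), read after overnight 37 °C exposure of DH5-alpha competent E. coli to compounds in 11-point titration.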
# [10] = Redox Reaction Profiling qHTS: Assay Interference Panel against the NCATS CANVASS Library (AID 1347401); further: potency means the concentration at half of the fitted maximal effect
# Outline: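 Quantitative HTS over an 11-point series was run in HEPES pH 7.3 with 50 mM NaCl, 200 uM DTT and 5 uM resazurin. Initial and 15-min resorufin fluorescence readings were taken.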
# [11] = MCF7 Cancer Cell Toxicity qHTS against the NCATS CANVASS Library (AID 1347369); details: activity change, negative = cytotoxicity: at 46 µM (top of the series); further: potency means the concentration at half of the fitted maximal effect
# Outline: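 Cells seeded at 500/well, then compound pinned. Plates incubated 72 hr at 37C, 5% CO2. CellTiterGlo added; luminescence read.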
# [12] = molecular target: Nuclear receptor subfamily 1 group I member 3 (Homo sapiens) (UniProt Q14994); test: qHTS for Constitutive Androstane Receptor (CAR) Antagonist screened against the NCATS CANVASS Library (AID 1347372);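 further: cells stimulated with 50 nM CITCO agonist so inhibition reflects antagonism; luciferase from CYP2B6 promoter reporter driven by hCAR in HepG2 cells; on the % scale 0 is the no-effect control and ±100 the full control effect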
# Outline: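 Cells were seeded and left 4hr to attach, then received compound at 11 concentrations and 50 nM CITCO. Following 24hr incubation, fluorescence viability and luciferase luminescence were read sequentially.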
# [13] = molecular target: Nuclear receptor subfamily 1 group I member 3 (Homo sapiens) (UniProt Q14994); test: qHTS for Constitutive Androstane Receptor (CAR) Agonist screened against the NCATS CANVASS Library (AID 1347373);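 further: every well also contained 1.5 µM PK11195 alongside the test compound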; further: potency means the concentration at half of the fitted maximal effect
# Outline: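 Agonist mode with 1.5uM PK11195 present: compounds for 24hr on HepG2-hCAR-CYP2B6 cells. CellTiter-Fluor fluorescence (ex 405, em 540 nm) gives viability; ONE-Glo luminescence reports CAR activation.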
# [14] = G06 Cancer Cell Toxicity qHTS against the NCATS CANVASS Library (AID 1347368); further: nearly all actives have a fitted effect of over 60% in size; on activity change, negative = cytotoxic: on the % scale 0 is the no-effect control and ±100 the full control effect
# Outline: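 Viability measured by CellTiterGlo ATP luminescence after 72 hr at 37C, 5% CO2. Canine G06 glioma cells plated at 500/well. Compounds tested as 11-point qHTS titrations.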
# [15] = SDT Cancer Cell Toxicity qHTS against the NCATS CANVASS Library (AID 1347365); further: nearly all actives have a fitted effect of over 60% in size; further: potency means the concentration at half of the fitted maximal effect
# Outline: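 Cytotoxicity taken from CellTiterGlo ATP luminescence after 72 hr at 37C, 5% CO2. Canine glioma line SDT, 500 cells/well, treated at 11 concentrations; bortezomib dose series as control.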
# [16] = qHTS assay for small molecule disruptors of mitochondrial membrane potential screened against the NCATS CANVASS Library (AID 1347389); further: potency means the concentration at half of the fitted maximal effect; nearly all actives have a fitted effect of over 60% in size
# Outline: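 Mitochondrial membrane potential in HepG2: 1 h compound treatment (11-point concentration series), 30 min m-MPI dye at 37C, then dual fluorescence of J-aggregates (ex 540/em 590) and monomers (ex 490/em 535); lower red/green ratio indicates depolarization.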
# [17] = Vero-766 cells viability qHTS against the NCATS CANVASS Library: Counterscreen for Zika virus inhibition assay (AID 1347394); details: Vero 766 viability, CellTiter-Glo luminescence, 72 h; activity change, negative = cytotoxic: at 46.1 µM (top of the series); further: potency means the concentration at half of the fitted maximal effect; nearly all actives have a fitted effect of over 60% in size
# Outline: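 Vero 766, no virus; 1000 cells/well; o/n attach; cpd 11-pt; 72 h, 37C, 5% CO2; CTG luminescence; cell-free media wells = 100% inhibition.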
# [18] = system: NAD(P)H diaphorase (Clostridium kluyveri); test: Diaphorse counterscreen qHTS: Assay Interference Panel against the NCATS CANVASS Library (AID 1347362); further: potency means the concentration at half of the fitted maximal effect
# Outline: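 Clostridium kluyveri diaphorase in PBS with 0.01% Tween-20 was preincubated 15 min at room temperature in the dark with compounds (11-point series). Resorufin fluorescence (ex 525/20, em 598/25) was read 5 min after adding resazurin/NADH.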
# [19] = J3T Cancer Cell Toxicity qHTS against the NCATS CANVASS Library (AID 1347371); further: potency means the concentration at half of the fitted maximal effect
# Outline: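 Cytotoxicity read as CellTiterGlo ATP luminescence after 72 h incubation (37C, 5% CO2) of J3T canine glioma cells (500/well) with an 11-point compound series.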
# Tags describe the fitted curve by direction and shape.
# Sequence of UniProt Q14994 (Q14994 whole entry, looked up): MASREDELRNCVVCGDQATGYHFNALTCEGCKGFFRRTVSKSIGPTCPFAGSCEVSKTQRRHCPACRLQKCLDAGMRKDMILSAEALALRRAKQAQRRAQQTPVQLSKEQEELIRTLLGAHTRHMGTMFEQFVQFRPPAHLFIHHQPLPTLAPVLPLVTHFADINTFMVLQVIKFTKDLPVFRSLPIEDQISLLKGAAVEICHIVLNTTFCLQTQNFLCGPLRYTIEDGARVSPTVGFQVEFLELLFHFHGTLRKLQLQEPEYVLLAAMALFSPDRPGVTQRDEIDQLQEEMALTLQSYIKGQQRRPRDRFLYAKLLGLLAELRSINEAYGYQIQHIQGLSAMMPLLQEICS
smiles,measurement,setting,value
C=C(C)C(=O)O[C@H]1C[C@@]2(C)OC(=CC2=O)/C(C)=C\[C@H]2OC(=O)C(=C)[C@H]12,Potency,[1],"inconclusive: 7.47 µM [cytotoxic, partial curve, poor fit]"
same,Potency,[2],active: 2.96 µM
same,Potency,[3],active: 3.32 µM
same,Potency,[4],"inconclusive: 18.8 µM [activator, partial curve]"
same,Potency,[5],"inconclusive: 15.4 µM [activator, single point]"
same,Potency,[6],active: 1.37 µM
same,Potency,[7],"inconclusive: 26.3 µM [activator, single point]"
COc1ccc(-c2oc3cc(OC)cc(OC)c3c(=O)c2O)cc1,Potency,[8],"inconclusive: 9.33 µM [inhibitor, single point]"
O=Cc1ccc2n1C[C@]1(OC2)O[C@H](CO)[C@@H](O)[C@@H]1O,Potency,[9],"inconclusive: 0.0023 µM [cytotoxic, full curve, poor fit]"
same,Potency,[10],inactive
CC1=C(C)C(=O)OC(C(C)C2(O)CCC3C4C5OC5C5(O)CC=CC(=O)C5(C)C4CCC32C)C1 (stereo not given),Potency,[11],inactive
same,Potency,[12],inactive
same,Potency,[13],"inconclusive: 33.1 µM [activator, single point]"
same,Potency,[9],"inconclusive: 0.0019 µM [rising, full curve, poor fit]"
same,Potency,[10],"inconclusive: 21.5 µM [activator, partial curve]"
C=C1CCC2C(C)(C(=O)O)CCC(CC/C(C)=C/C(=O)NC(CCC(N)=O)C(=O)O)[C@@]2(C)C1 (stereo not given in full),Potency,[14],inactive
O=C1CC(c2ccc(O)cc2)Oc2cc(O)ccc21 (stereo not given),Potency,[15],"inconclusive: 23.5 µM [cytotoxic, single point]"
same,Potency,[3],inactive
same,Potency,[16],active: 7.41 µM
same,Potency,[7],inactive
C=CC(CCCCC)C1C(=O)NC(=O)C1C(=O)C1C2C(C)CC(C(=O)O)CC2CC1(O)C(=O)/C=C/C (stereo not given),Potency,[3],inactive
same,Potency,[13],inactive
C[C@]12CCC[C@](C)(C(=O)O)[C@@H]1CC[C@@]1(C)c3cocc3CC[C@H]21,Potency,[11],"inconclusive: 0.208 µM [cytotoxic, partial curve, poor fit]"
COc1cc2oc3ccccc3c(=O)c2cc1OC,Potency,[1],inactive
same,Potency,[13],active: 38.2 µM
same,Potency,[6],"inconclusive: 4.44 µM [inhibitor, full curve]"
same,Potency,[17],"inconclusive: 30.4 µM [cytotoxic, partial curve]"
C[C@@]12CCC[C@@](C)(C(=O)O)[C@H]1CC[C@@]13C[C@@H](CC[C@H]12)[C@](C)(O)C3,Potency,[5],inactive
CC(=O)N[C@H](C)c1nc(/C=C/C=C/C(=O)CC2CC(=O)CC[C@]2(C)O)cs1 (stereo not given in full),Potency,[11],inactive
CCC(C)=C1OC(=O)[C@H](C)[C@H](O)[C@H](Cc2cccnc2)NC(=O)C(NC(=O)c2ncccc2O)C(C)OC1=O (stereo not given in full),Potency,[18],"inconclusive: 24.3 µM [inhibitor, partial curve]"
same,Potency,[3],inactive
same,Potency,[14],inactive
same,Potency,[9],"inconclusive: 0.0047 µM [cytotoxic, full curve, poor fit]"
same,Potency,[17],"inconclusive: 23.4 µM [cytotoxic, partial curve]"
C/C=C(/C)c1c(Cl)c(OC)c(C)c2c1Oc1c(Cl)c(O)c(Cl)c(C)c1C(=O)O2,Potency,[18],"inconclusive: 27.2 µM [inhibitor, partial curve]"
same,Potency,[14],inactive
same,"activity change, negative = cytotoxicity",[11],inconclusive: -30.6% [cytotoxic]
same,Potency,[8],"inconclusive: 23.4 µM [inhibitor, single point]"
same,Potency,[19],"inconclusive: 20.9 µM [cytotoxic, partial curve, poor fit]"
same,Potency,[9],"inconclusive: 26.3 µM [rising, partial curve]"
C=C(C)CC[C@H](Cc1c(O)cc(O)c2c1O[C@H](c1ccc(O)cc1O)CC2=O)C(=C)C,Potency,[15],inactive
same,Potency,[8],inactive
same,Potency,[9],"inconclusive: 37.1 µM [rising, partial curve, poor fit]"
same,Potency,[17],active: 23.4 µM
C=C(Cl)[C@](Cl)(CBr)CC[C@@H](Br)C(C)(C)Cl,Potency,[18],inactive
same,Potency,[3],active: 20.9 µM
same,Potency,[8],active: 23.4 µM
same,Potency,[4],"inconclusive: 26.5 µM [activator, single point]"
same,Potency,[5],active: 4.86 µM
same,Potency,[7],"inconclusive: 37.1 µM [activator, single point]"
same,Potency,[17],"inconclusive: 37.1 µM [cytotoxic, single point]"
CC1C(=O)C23CCC1C[C@@]21O[C@H]2C(C)(C)C=CC(=O)[C@@]23COC1=O (stereo not given in full),Potency,[9],inactive
O=c1cc(-c2ccc(O)cc2)oc2cc(O)c([C@@H]3OC(CO)[C@H](O)[C@@H](O)[C@H]3O)c(O)c12 (stereo not given in full),Potency,[9],inactive
C[C@@H]1O[C@@H](Oc2c(-c3ccc(O)cc3)oc3cc(O)cc(O)c3c2=O)[C@H](O)[C@H](O)[C@H]1O,Potency,[18],"inconclusive: 19.3 µM [inhibitor, partial curve, poor fit]"
same,Potency,[14],inactive
